Assay results reported in article PMC4336329 (PLoS ONE, 2015).
The campaign covered roughly 310,000 compounds. About 2,200 (0.71%) showed an effect of 50% or more. Effects have a minus sign here. The list shows a part of the results.

biological target: human ether-à-go-go-related gene (hERG) potassium channel (human, UniProt Q12809); test: primary screen, population patch clamp on CHO cells stably expressing hERG
Experimental: Briefly, Chinese hamster ovary (CHO) cells stably expressing the hERG channel were dislodged from tissue culture flasks and dispensed into PPC plates. […] During the recording, background leak currents were estimated by a 100 ms step to -80 mV from an initial holding potential of -70 mV and subtracted from the subsequent current measurement. The campaign was conducted in two phases using slight differences in recording protocol. In the first phase, the initial voltage pulse used a 100 ms step to -30 mV from a holding potential of -70 mV, a 2 s conditioning step to +25 mV, and a 2 s test step to -30 mV. During the second phase of the screen, the potential during the conditioning step was raised to +45 mV. In both phases of the campaign, a secondary voltage pulse was applied using the same parameters as the second phase initial pulse. The initial and secondary pulses were applied in the absence of compound, and upon application of 1 μM and 10 μM test concentrations. Small molecule effects on hERG current density were quantified by […].

Sequence of human ether-à-go-go-related gene (hERG) potassium channel (Q12809 whole entry, looked up): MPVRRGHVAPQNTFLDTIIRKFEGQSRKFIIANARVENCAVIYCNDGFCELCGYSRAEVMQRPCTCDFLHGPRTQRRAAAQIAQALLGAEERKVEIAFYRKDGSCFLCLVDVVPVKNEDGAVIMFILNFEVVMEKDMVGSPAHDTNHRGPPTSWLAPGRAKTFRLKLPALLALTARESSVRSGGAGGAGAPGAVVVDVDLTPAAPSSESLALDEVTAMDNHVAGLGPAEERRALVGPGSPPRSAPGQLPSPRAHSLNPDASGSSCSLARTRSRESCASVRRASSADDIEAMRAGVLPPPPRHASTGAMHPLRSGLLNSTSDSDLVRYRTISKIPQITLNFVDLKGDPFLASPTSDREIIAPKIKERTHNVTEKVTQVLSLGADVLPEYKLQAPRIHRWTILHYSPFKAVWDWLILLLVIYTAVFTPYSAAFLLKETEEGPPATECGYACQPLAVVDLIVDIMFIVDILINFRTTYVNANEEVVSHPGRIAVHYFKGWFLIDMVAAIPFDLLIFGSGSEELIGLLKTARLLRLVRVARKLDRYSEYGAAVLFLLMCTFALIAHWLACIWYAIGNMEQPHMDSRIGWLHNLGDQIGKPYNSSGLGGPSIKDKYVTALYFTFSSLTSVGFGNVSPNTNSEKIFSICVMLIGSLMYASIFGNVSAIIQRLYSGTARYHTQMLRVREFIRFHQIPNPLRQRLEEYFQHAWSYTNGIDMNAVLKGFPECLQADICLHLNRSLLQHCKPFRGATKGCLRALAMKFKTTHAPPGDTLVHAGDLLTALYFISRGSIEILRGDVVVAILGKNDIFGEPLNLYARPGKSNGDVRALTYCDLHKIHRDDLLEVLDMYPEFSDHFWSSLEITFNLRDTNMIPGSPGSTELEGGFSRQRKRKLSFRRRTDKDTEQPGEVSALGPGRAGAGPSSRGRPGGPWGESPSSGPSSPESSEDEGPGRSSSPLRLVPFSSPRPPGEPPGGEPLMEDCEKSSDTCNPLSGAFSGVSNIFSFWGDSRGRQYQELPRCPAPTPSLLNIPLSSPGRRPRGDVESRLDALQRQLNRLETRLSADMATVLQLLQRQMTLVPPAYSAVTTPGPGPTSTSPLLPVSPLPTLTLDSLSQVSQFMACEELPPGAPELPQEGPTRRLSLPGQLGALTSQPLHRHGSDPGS

SMILES	hERG current change (%, negative = inhibition) at 1uM [%]
O=C(NCc1ccc(Cl)cc1)C1=Cc2cc(Cl)ccc2OC1	0.129
CC(C)C[C@@]12C(=O)N(c3cccc(F)c3)C(=O)N1[C@H](c1ccc(Cl)cc1)[C@@H]1C(=O)N(C3CCCCC3)C(=O)[C@@H]12	13.5
O=C(CSc1nnnn1-c1cccc(F)c1)Nc1nc2ccccc2s1	7.84
COCCCNCCCCOc1c(Cl)cc(C)cc1Br.O=C(O)C(=O)O	-20.1
CCOc1ccc(-n2c(=O)c3sccc3n(CC(=O)NCc3ccco3)c2=O)cc1	2.66
Cc1cccc(N2CN(Cc3ccco3)CNC2=S)c1	11.2
COc1ccc(C(=O)N/N=C(/C)c2ccc(N3CCCCC3)cc2)cc1	8.27
CCc1c(C)c2cc(Cl)c(O)c(CN(CC)CC)c2oc1=O	9.4
O=C(COCc1cc(-c2ccc3c(c2)OCO3)on1)N1CCN(c2ccccc2)CC1	-0.412
CC(/C=C/c1ccco1)=N\NC(=O)c1cc(C)[nH]n1	9.76
CCOC(=O)c1cnn(-c2ccccc2)c1NC(=O)CSc1nnc(-c2cccs2)n1CC	-44.3
O=C(Nc1cc(F)ccc1F)c1ccc(-n2cncn2)c([N+](=O)[O-])c1	9.36
COCCN(C(=O)COC(=O)COc1ccc2c(c1)CCC2)c1c(N)n(Cc2ccccc2)c(=O)[nH]c1=O	5.96
CN1c2ccccc2C(O)=C(C(=O)Nc2ccccc2)S1(=O)=O	3.21
COC(=O)c1ccc(COc2ccc(C3C4=C(CCCC4=O)Nc4onc(C)c43)cc2)cc1 (stereo not drawn)	-2.18
O=c1cc(Cn2ccnc2)c2cc(O)ccc2o1	15.2
Cc1ccc(S(=O)(=O)N2CCC(C(=O)OCC(=O)N3CCC(C)CC3)CC2)cc1C	9.02
COc1ccc2c3c([nH]c2c1)C1CC2C(CC(O)C(OC)C2C(=O)O)CN1CC3 (stereo not drawn)	17.7
O=C(Nc1nc(-c2ccc3c(c2)OCCO3)cs1)c1ccco1	6.84
CCO[C@H]1OC(C(=O)O)=C[C@@H](c2cn(C(C)=O)c3ccccc23)[C@@H]1CCCO	19
Cc1ccc(C(=O)NC(NC(=O)c2ccc(C)cc2)c2cccc([N+](=O)[O-])c2)cc1.O	7.7
CCn1c(SCC(=O)NNC(=S)Nc2ccccc2)nnc1-c1ccc(Cl)cc1	13.9
COc1ccc(NS(=O)(=O)c2csc(C(N)=O)c2)cc1OC	14.9

SMILES	hERG current change (%, negative = inhibition) at 1uM [%]
COc1cc(C(=O)Nc2c(C)cc(C)cc2C)c(Br)c(OC)c1OC	-2.78
Cc1ccc(OCCCC(=O)N2CCOCC2)cc1	10.3
CCc1nnc(NC(=O)c2ccc(S(=O)(=O)N3CCOCC3)cc2)s1	0.698
O=C(NNC1=Nc2ccccc2SC1)c1cccc([N+](=O)[O-])c1	4.14
CC(C)c1ccc(CNc2ccc(N3CCOCC3)cc2)cc1	14.5
Cc1cccc(-c2ocnc2C(=O)Nc2ccccc2NC(=O)c2ccccn2)c1	8.05
O=C(CCc1ccccc1)NC(=S)Nc1ccccc1Br	6.8
CCC(=O)Nc1ccc2oc(-c3cccnc3)nc2c1	9.82
CN1C(=O)C(=Cc2cn(CC(=O)N3CCCCC3)c3ccccc23)C(=O)N(C)C1=O	1.13
COC(=O)C1CCCN1C(=O)c1cccs1 (stereo not drawn)	14.3
CC(C)CN1CCC(=O)N(CCC#N)CC1	3.88
Cn1ncc2c(Nc3ccc(Cl)cc3)ncnc21	11.4
O=C(CN1CCN(C(=O)C2CCCO2)CC1)Nc1ccc(Cl)c(Cl)c1 (stereo not drawn)	-6.1
Cc1ccc(OCCCn2ccnc2)c(Br)c1	8.92
CCOC(=O)C1(CCc2ccccc2)CCN(Cc2ccccn2)CC1	-57.1
O=C(NCCCn1ccnc1)NC(C(F)(F)F)C(F)(F)F	-5.26
Cc1ccc(NC(=O)CN2C(=O)NC(C)(c3ccc(Cl)cc3)C2=O)cc1 (stereo not drawn)	14.4
CC(=O)Nc1c2c3c(cccc3n(C)c1=O)C(=O)c1ccccc1-2	4.67
OCCCCC#Cc1c(-c2ccsc2)sc2ccccc12	9.16
CC(OC(=O)c1ccc(O)cc1)C(=O)Nc1nc(-c2ccccc2)cs1 (stereo not drawn)	4.82
O=C(COc1ccc(Cl)cc1)N1CCN(Cc2ccc([N+](=O)[O-])cc2)CC1.O=C(O)C(=O)O	-76.4
Cc1ccc(NC(=O)CN2CCc3cc4c(cc3C2C)OCCCO4)cc1 (stereo not drawn)	6.01
Cc1noc(C)c1CCC(=O)Nc1c(C(C)C)cccc1C(C)C	-4.83

SMILES	hERG current change (%, negative = inhibition) at 1uM [%]
CC(C(=O)N=Nc1c(O)n(C)c2ccc(Br)cc12)n1cnc2ccccc2c1=O (stereo not drawn)	10.7
O=C(Cc1ccc(S(=O)(=O)N2CCOCC2)s1)N1CCN(S(=O)(=O)c2cccc(Cl)c2)CC1	14.8
Cc1ncc[nH]1	13.2
Oc1cccc(NC(=S)N=Nc2c(O)[nH]c3ccccc23)c1	6.83
CCS(=O)CCSc1nc2ccccc2s1 (stereo not drawn)	6.93
COc1cc(OC)cc(C(=O)NCCOC23CC4CC(CC(C4)C2)C3)c1	3.66
CC1CC(Nc2ccccc2)c2ccccc2N1C(=O)c1ccco1 (stereo not drawn)	12.1
COc1cc2c(cc1NC(=O)c1cc(-c3cccnc3)nc3ccc(C)cc13)oc1ccccc12	9.73
Cc1ccc(-c2ccc3nnc(SCC(=O)NCC4CCCO4)n3n2)cc1 (stereo not drawn)	5.54
O=C(O)CCC(=O)Nc1ccc(N2CCCCCC2)cc1	8.38
COc1cccc(C(N)=O)c1	13
COc1ccccc1OCC(=O)Nc1ccc(S(=O)(=O)Nc2cc(C)on2)cc1	16.8
CCc1ccc(C(=O)NNC(=O)c2ccc3c(=O)n4c(nc3c2)CCC4)cc1	9.72
Cc1cnc(C(=O)Nc2ccccc2F)cn1	19.9
CCCc1nc(NCCO)c(C#N)c2c1CCCC2	7.23
CC(C)CCn1c(=O)c2ccccc2n2c(CN3CCOCC3)nnc12	3.76
O=C(Cn1cnc2ccccc2c1=O)N/N=C/c1ccc(Br)cc1	9.21
O=C(N/N=C/C1CCCCC1)c1ccccn1	11
COC(=O)c1ccccc1S(=O)(=O)N(Cc1ccco1)Cc1cc2cc(OC)ccc2[nH]c1=O	-9.26
COc1ccc(C=O)cc1OC(=O)N1CCOCC1	4.17
O=C(c1ccccc1Oc1nnnn1-c1ccccc1)N1CCOCC1	9.38
c1ccc(Nc2nc(N3CCCC3)nc(N3CCCC3)n2)cc1	12
CCCCNc1nc2c(c(=O)n(C)c(=O)n2C)n1Cc1cccc(OC)c1	-3.67

SMILES	hERG current change (%, negative = inhibition) at 1uM [%]
COc1ccc2[nH]c3nc(SCC(=O)Nc4cccc(NC(C)=O)c4)nnc3c2c1	11.5
COC(=O)c1c(C)oc2ccc(OC(=O)c3cccs3)cc12	6.09
Cn1c(C(=O)NCCc2c[nH]c3ccccc23)cc2sccc21	7.58
COc1cccc(NC(=O)C(=O)NCCc2ccc(F)cc2)c1	6.19
O=C(CN1C(=O)NC2(CCCCCC2)C1=O)c1ccc2c(c1)OCCO2	3.38
CN1C(=O)C(C)(C)c2cc(S(=O)(=O)NCC3CCC(C(=O)NC4CCCCC4)CC3)ccc21 (stereo not drawn)	13.9
O=C(CCc1nnc2ccc(NCc3ccco3)nn12)N1CCCCC1	15.4
O=C(NCc1ccco1)C1(c2ccc(Cl)cc2)CCCC1	6.19
Cc1cc(NC(=O)C(C)SCC(=O)N(C)Cc2ccccc2F)no1 (stereo not drawn)	15.8
O=C(O)C1=C[C@@H](c2ccc(C(F)(F)F)cc2)C[C@@H](OCCCCO)O1	14.2
Clc1ccc(N2CCN(c3cnc4ccccc4n3)CC2)cc1	16.2
CCNc1nc(NCC)n2c(SCC(=O)NC34CC5CC(CC(C5)C3)C4)nnc2n1	5.57
FC(F)(F)c1nc2ccccc2c2nc3ccccc3n12	13.3
COc1ccc(C(=O)C2CCCN(Cc3cccn3-c3nccs3)C2)cc1OC (stereo not drawn)	-90.2
Cc1c(C(=O)N2CCC3(CC2)OCCO3)oc2ccc(S(=O)(=O)N3CCOCC3)cc12	15.8
O=C(CCCc1c[nH]c2ccccc12)N[C@@H](Cc1c[nH]c2ccccc12)C(=O)O	13.9
C[C@H]1CN=C(N(C)C)N1CC1CCCC1	8.48
COC(=O)N1C(c2ccccc2)C1c1ccccc1 (stereo not drawn)	15.9
CC(C)CC(NC(=O)C1CCC(C)CC1)C(=O)NCc1ccccn1 (stereo not drawn)	16.8
COc1ccc(-c2[nH]ncc2-c2ccc(Cl)cc2)c(O)c1	7.01
CCOc1ccc(-n2ccc(=O)c(C(=O)Nc3ccc(S(=O)(=O)Nc4ncccn4)cc3)n2)cc1	13.8
